This note sets out measurements from PubChem BioAssay AID1745853 (National Center for Advancing Translational Sciences (NCATS), 2022).

Common to all, as to assay: Primary Screen for Target Class Profiling of Small Molecule Inhibitors of Methyltransferases
Assay [1] concerns the target Glycine N-methyltransferase (Homo sapiens) (UniProt Q14749). The conditions noted are these: purified enzyme, MTase-Glo SAH luminescence; measured here: GNMT inhibition; at 40 µM; stronger effect = lower value. The method in brief:
(§1)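 Each enzyme was reacted with SAM and its substrate, with compounds tested once at 40 uM; SAH formed was read by MTase-Glo luminescence.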

Assay [2] deals with Guanidinoacetate N-methyltransferase (Homo sapiens) (UniProt Q14353). As to conditions: purified enzyme, MTase-Glo SAH luminescence; measured here: GAMT inhibition; at 40 µM; stronger effect = lower value. The method in brief:
as §1

The target in assay [3] is Histamine N-methyltransferase (Homo sapiens) (UniProt P50135). The conditions noted are these: purified enzyme, MTase-Glo SAH luminescence; measured here: HNMT inhibition; at 40 µM; stronger effect = lower value. The method in brief: as §1
Assay [4] has as its target Nicotinamide N-methyltransferase (Homo sapiens) (UniProt P40261). The conditions noted are these: purified enzyme, MTase-Glo SAH luminescence; measured here: NNMT inhibition; at 40 µM; stronger effect = lower value. The essentials: as §1
Assay [5] addresses Phenylethanolamine N-methyltransferase (Homo sapiens) (UniProt P11086). The conditions noted are these: purified enzyme, MTase-Glo SAH luminescence; measured here: PNMT inhibition; at 40 µM; stronger effect = lower value. The essentials: as §1

The list shows a part of the results. Shown are side measurements of this screen, not its main read-out; they come without a call.
On the % scale 0 is the no-effect control and ±100 the full control effect.

Take `O=c1c2ccccc2n2c(-c3ccc(F)c(F)c3)nnc2n1Cc1ccccc1Cl`: the activity change, negative = inhibition was -30.5% in assay [1]; 3.79% in assay [2]; -5.52% in assay [3]; -3.25% in assay [4]; -3.11% in assay [5].
For `CN1CCN(C(=O)c2ccc3cc(CCNc4ncnc5ccc(C#N)cc45)ccc3c2)CC1`, the activity change, negative = inhibition is -56.6% in assay [1]; -8.77% in assay [2]; 8.09% in assay [3]; -15.5% in assay [4]; -0.344% in assay [5].
As to `CCc1cccc(-n2nnnc2N2CCN(C(=O)Cc3ccc(C)c(F)c3)CC2)c1`, the activity change, negative = inhibition was -8.56% in assay [1]; -6.51% in assay [2]; -3.4% in assay [3]; -25.3% in assay [4]; -9.05% in assay [5].
`CC1=C2CC(C)(C)CC2C(O)C2=C(C1)C(=O)OC2O` (stereo not drawn): the activity change, negative = inhibition was 3.33% in assay [1]; 3.27% in assay [2]; 9.31% in assay [3]; -12.5% in assay [4]; 5.84% in assay [5].
In the case of `COc1ccc(OC)c(-c2cc(Cl)c3c(c2)CC(CNC(=O)c2c(F)cccc2F)O3)c1` (stereo not drawn), the activity change, negative = inhibition in assay [1] is -5.13%; in assay [2] it was -8.25%; in assay [3], -4.42%; in assay [4], -11.4%; in assay [5] it was -13.5%.
Turning to `CN(C)c1cccc(-c2cnc(Nc3cnccn3)c3c2CCO3)c1`, the activity change, negative = inhibition in assay [1] is -6.71%; in assay [2], -0.95%; in assay [3] it was -4.91%; in assay [4], -7.77%; in assay [5], 0.697%.
For `CCc1cc2c(cc3n2CC(C)(C(=O)NC2CCCCC2)N(Cc2ccccc2Cl)C3=O)s1` (stereo not drawn) the same measures were -2.73%, 4.09%, 1.61%, 1.68% and -1.09%.
For the molecule `COCc1cc(C[C@@H]2CC[C@H](O)[C@@H](CNCc3ccc(Cl)cc3)O2)no1`, the activity change, negative = inhibition in assay [1] was -5.87%; in assay [2] it was -6.84%; in assay [3], -4.24%; in assay [4], -10.3%; in assay [5], -7.09%.
For `CC(=O)NC1C(OC2CCC3(C)C(CCC4(C)C3CC=C3C5CC(C)(C)CCC5(C(=O)O)C(O)CC34C)C2(C)C)OC(CO)C(O)C1O` (stereo not drawn) the same measures were 0%, -7.02%, 4.51%, -20.5% and -14.2%.
As to `Cc1cc2ncc(C(=O)NC(C)CCc3ccccc3)cn2n1` (stereo not drawn), the activity change, negative = inhibition in assay [1] was -8.27%; in assay [2], -9.12%; in assay [3], -5.38%; in assay [4] it was -8.56%; in assay [5] it was -10.4%.
For the molecule `COc1ccccc1CCN1CCCC(CN(C)C(=O)CN2C(=O)CNC2=O)C1` (stereo not drawn), the activity change, negative = inhibition in assay [1] was -1.95%; in assay [2] it was -2.12%; in assay [3], -1.39%; in assay [4], -4.89%; in assay [5], 3.12%.
For `CC1CCC(NC(=O)C2(C)Cn3c(ccc3-c3ccccc3)C(=O)N2Cc2cccc(Cl)c2)CC1` (stereo not drawn) the same measures were 5.54%, 0%, 2.8%, 4.7% and 2.12%.
Consider `COc1ccccc1N1C(=O)c2cc3ccccc3n2CC1(C)C(=O)NCCC(C)C` (stereo not drawn), for which the activity change, negative = inhibition in assay [1] was 6.27%; in assay [2] it was 1.48%; in assay [3] it was 1.79%; in assay [4], 6.4%; in assay [5], -0.546%.
For `O=C(c1ccccc1OCC1CCCNC1)N1CCOCC1` (stereo not drawn) the same measures were -3.7%, -5.61%, -0.682%, -4.58% and -1.35%.
For `COc1cc2ncnc(Nc3cccc(O)c3)c2cc1OC` the same measures were -2.21%, 2.43%, 1.3%, -20.6% and -1.16%.
For `CCCSCCCN1C(=O)c2cc(-c3ccc(CC)cc3)nn2CC1(C)C(=O)NC1CCCCC1` (stereo not drawn) the same measures were 0.568%, 5.96%, 2.02%, 2.02% and -3.24%.
For the molecule `CCn1ccnc1CNC(=O)c1cc(OC)ccc1OC1CCN(C(=O)C2CC2)CC1`, the activity change, negative = inhibition in assay [1] is -1.22%; in assay [2] it was 0.256%; in assay [3], -0.163%; in assay [4], 2.92%; in assay [5], 3.95%.
In the case of `Clc1ccc(CN[C@H]2CCN(c3ncc(Br)cn3)C2)c(Cl)c1`, the activity change, negative = inhibition in assay [1] was 0.415%; in assay [2], 7.94%; in assay [3], 11%; in assay [4], -18%; in assay [5], -0.363%.
As for `CSc1ccc(CNC(=O)c2cc3n(n2)CC(C)(C(=O)NC2CCCCCC2)N(C)C3=O)cc1` (stereo not drawn), the activity change, negative = inhibition was -3.65% in assay [1]; -1.94% in assay [2]; 0.955% in assay [3]; -2.6% in assay [4]; -9.74% in assay [5].
For `CC1(C(=O)NCc2ccc(F)cc2)Cn2cnc(C(=O)Nc3cc(F)ccc3F)c2C(=O)N1C1CC1` (stereo not drawn) the same measures were -7.45%, 2.56%, -4.48%, -7.82% and -3.94%.
For `CC1CCN(S(=O)(=O)c2ccc3c(ccn3CC(=O)NCc3cccs3)c2)CC1` the same measures were 5.67%, 0.277%, 6.97%, 0.996% and -9.64%.
In the case of `CCCn1c(=O)c2cc(F)ccc2n2c(SCC(=O)NCc3ccccc3Cl)nnc12`, the activity change, negative = inhibition in assay [1] was -1.96%; in assay [2], 0.153%; in assay [3], 7.87%; in assay [4], -4.51%; in assay [5], 1.9%.
For `CC1=C(C(=O)OC2OC(COC3OC(CO)C(O)C(O)C3O)C(O)C(O)C2O)C(C)(C)CCC1` (stereo not drawn) the same measures were 2.93%, 2.36%, 5.61%, -11.2% and -5.41%.
For `O=C(CCc1nnc2n(CCc3ccccc3)c(=O)c3ccccc3n12)NC1CCN(Cc2ccccc2)CC1` the same measures were -3.59%, 0%, -19.4%, 7.61% and -3.28%.
Consider `NC1=N[C@@]2(c3cc(NC(=O)c4ccc(F)cn4)ccc3F)COC[C@H]2CS1`, for which the activity change, negative = inhibition in assay [2] is -4.17%; in assay [4] it was -15.6%; in assay [5], -9.47%.
Consider `CC1c2cccn2CCN1C(=O)Nc1ccc(F)cc1F` (stereo not drawn), for which the activity change, negative = inhibition in assay [1] was -7.04%; in assay [2], 2%; in assay [3] it was -7.22%; in assay [4], -19.4%; in assay [5] it was -6.68%.
As for `C/C(=C\CC[C@@H](C)[C@H]1CC(O)[C@@]2(C)C3CC[C@H]4C(C)(C)[C@@H](OC5OCC(O)C(O)C5OC5OC(CO)C(O)C(O)C5O)CC[C@@]45C[C@@]35CC(O)[C@]12C)C(=O)O` (stereo partly drawn), the activity change, negative = inhibition was -0.546% in assay [1]; -8.71% in assay [2]; 1.17% in assay [3]; -20.2% in assay [4]; 1.24% in assay [5].
For `O=C(NCc1ccc2c(c1)OCO2)c1n[nH]nc1Nc1ccc(Cl)cc1` the same measures were 0.309%, 0%, 7.82%, 0.07% and 5.31%.
For `CCOc1ncc(S(=O)(=O)N2CCN(CC)CC2)cc1-c1nc2c(CC)n(CCOC)nc2c(=O)[nH]1` the same measures were 4.49%, 5.05%, 11%, -14.7% and 0.815%.
As for `COc1ccc2cc3n(c2c1)CC(C)(C(=O)NC1CCCCC1)N(CCc1ccccc1)C3=O` (stereo not drawn), the activity change, negative = inhibition in assay [1] was -1.2%; in assay [2] it was 4.25%; in assay [3], 2.41%; in assay [4], -4.58%; in assay [5] it was -0.978%.
For `COCc1noc([C@@H]2CN(C(=O)C3CC=CCC3)C[C@H]2C(N)=O)n1` (stereo partly drawn) the same measures were -1.67%, 0.711%, 0.569%, 2.12% and -1%.
For `C=CCOc1cc(Cl)ccc1C(=O)NCCN(CC)CC` the same measures were -6.17%, -4.97%, -3.42%, -13.5% and -2.87%.
On to `CCc1ccc(S(=O)(=O)c2nnn3c2nc(NCc2cccc(OC)c2)c2ccccc23)cc1`, for which the activity change, negative = inhibition is -3.07% in assay [1]; 2.88% in assay [2]; -4.04% in assay [3]; 1.63% in assay [4]; -5.62% in assay [5].
Take `Cc1nc(-c2cn(C3CCCN(C(=O)c4ccc(Cl)s4)C3)nn2)no1` (stereo not drawn): the activity change, negative = inhibition was -5.86% in assay [1]; -0.749% in assay [2]; -2.16% in assay [3]; -6.36% in assay [4]; -7% in assay [5].
On to `CN1CCC(N(Cc2cccs2)c2ccccc2)CC1`, for which the activity change, negative = inhibition in assay [1] was 1.63%; in assay [2], 9.14%; in assay [3] it was -20.2%; in assay [4], -18.3%; in assay [5], -5.76%.
As to `O=C1CCN(C(=O)CCc2nc3ccccc3s2)CCCCCCN1`, the activity change, negative = inhibition was -1.44% in assay [1]; -1.83% in assay [2]; 0.004% in assay [3]; 1.17% in assay [4]; -5.01% in assay [5].
As to `CCCSCCCNC(=O)c1cc2n(n1)CC(C)(C(=O)NC1CCCCCC1)N(C)C2=O` (stereo not drawn), the activity change, negative = inhibition in assay [1] is -2.02%; in assay [2], -4.09%; in assay [3] it was -7.03%; in assay [4], -0.684%; in assay [5], -8.17%.
For `C[C@@H]1O[C@@H](O[C@@H]2[C@@H](O)[C@H](O[C@H]3[C@H](O[C@H]4CC[C@@]5(C)C(CC[C@]6(C)C5CC=C5[C@@H]7CC(C)(C)CC[C@]7(C(=O)O[C@@H]7O[C@H](CO)[C@@H](O)[C@H](O)[C@H]7O[C@@H]7O[C@@H](C)[C@H](O[C@@H]8O[C@@H](C)[C@H](O)[C@@H](O)[C@H]8O)[C@@H](O)[C@H]7O)CC[C@]56C)[C@@]4(C)CO)O[C@H](C(=O)O)[C@@H](O)[C@@H]3O)O[C@H](CO)[C@H]2O)[C@H](O)[C@H](O)[C@H]1O` (stereo partly drawn), the activity change, negative = inhibition in assay [1] is 0.529%; in assay [2], 2.91%; in assay [3] it was 11%; in assay [4] it was -8.38%; in assay [5] it was 2.06%.
